These results are taken from PMC4336329 (PLoS ONE, 2015).

Out of some 310,000 compounds screened, about 2,200 (0.71%) showed an effect of 50% or more. The effect is printed as a negative number. The list shows a part of the results.

Sequence of human ether-à-go-go-related gene (hERG) potassium channel (Q12809 whole entry, looked up): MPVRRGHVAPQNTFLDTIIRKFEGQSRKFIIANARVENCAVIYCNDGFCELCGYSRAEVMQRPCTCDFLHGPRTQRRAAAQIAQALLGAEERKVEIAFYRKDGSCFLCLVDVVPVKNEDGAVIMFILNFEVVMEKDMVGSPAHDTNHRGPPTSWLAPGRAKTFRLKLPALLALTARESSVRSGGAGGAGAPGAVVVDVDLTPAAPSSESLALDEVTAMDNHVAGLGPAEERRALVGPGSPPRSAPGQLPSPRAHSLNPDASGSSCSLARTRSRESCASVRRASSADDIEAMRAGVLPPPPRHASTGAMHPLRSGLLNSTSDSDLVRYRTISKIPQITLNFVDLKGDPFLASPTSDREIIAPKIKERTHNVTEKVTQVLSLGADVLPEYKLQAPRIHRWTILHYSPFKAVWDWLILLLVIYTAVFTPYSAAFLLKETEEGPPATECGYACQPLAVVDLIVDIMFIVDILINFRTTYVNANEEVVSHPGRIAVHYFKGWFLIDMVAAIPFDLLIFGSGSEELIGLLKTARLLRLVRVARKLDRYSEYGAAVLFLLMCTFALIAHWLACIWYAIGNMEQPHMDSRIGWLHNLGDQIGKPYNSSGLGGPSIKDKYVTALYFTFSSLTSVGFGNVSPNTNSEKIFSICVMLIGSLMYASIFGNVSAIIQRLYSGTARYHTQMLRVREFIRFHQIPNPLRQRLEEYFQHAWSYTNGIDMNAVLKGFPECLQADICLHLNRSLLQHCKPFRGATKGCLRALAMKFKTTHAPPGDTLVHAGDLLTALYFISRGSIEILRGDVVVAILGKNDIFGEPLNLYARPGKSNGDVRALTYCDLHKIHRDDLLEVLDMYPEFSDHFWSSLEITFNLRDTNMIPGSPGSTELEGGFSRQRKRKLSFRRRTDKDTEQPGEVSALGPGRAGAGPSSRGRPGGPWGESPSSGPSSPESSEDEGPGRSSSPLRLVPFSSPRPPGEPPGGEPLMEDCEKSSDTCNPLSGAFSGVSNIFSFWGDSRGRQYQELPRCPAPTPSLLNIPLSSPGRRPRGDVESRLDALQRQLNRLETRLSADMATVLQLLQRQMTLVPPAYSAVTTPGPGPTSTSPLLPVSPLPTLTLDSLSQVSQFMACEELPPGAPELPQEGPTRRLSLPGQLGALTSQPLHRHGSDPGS

The experiment has as its target human ether-à-go-go-related gene (hERG) potassium channel (human, UniProt Q12809). As to the kind of experiment: primary screen, population patch clamp on CHO cells stably expressing hERG.
As to `CCc1ccc(CCC(=O)Nc2ccc(C)cc2C)o1`, the “hERG current change (%, negative = inhibition) at 1uM” value is -5.31%.
The value for `CCCc1nnc(SCC(=O)Nc2ccc(OC)cc2)n1N` was 11.1%; that for `CCCN(CC(=O)Nc1ccccc1C)C(=O)c1cccc(S(=O)(=O)N2CCN(c3ccccc3)CC2)c1` was -11.7%.
The result for `CSc1ccccc1NC(=O)c1ccccc1N(C)S(C)(=O)=O` reads 4.38%; that for `CCC1(C)Cc2c(sc3nnn(CC(=O)Nc4cccc5ccccc45)c(=O)c23)CO1` (stereo not drawn), 7.05%.
Consider `COC(=O)c1cc(=O)n(Cc2cccs2)c(=Nc2ccccc2)s1`, for which the “hERG current change (%, negative = inhibition) at 1uM” value is reported as 9.66%.
For `CC(=O)c1cccc(NC2c3ccccc3C(=O)N2Cc2ccco2)c1` (stereo not drawn), the “hERG current change (%, negative = inhibition) at 1uM” value is on record as 1.85%.
Turning to `O=C(CCc1nc2ccccc2s1)N1CCN(c2ccccc2)CC1`, the “hERG current change (%, negative = inhibition) at 1uM” value was found to be 5.17%.
For the compound `Cc1ccc(-c2nnc(COC(=O)c3ccco3)o2)cc1`, the “hERG current change (%, negative = inhibition) at 1uM” value worked out at 10.5%.
The result for `COc1cscc1C(=O)O` reads 1.63%.
The result for `CCc1ccc2c(CC(=O)Nc3nnc(C4CC4)s3)coc2c1.CN(C)C=O` reads -1.38%; that for `CCCCn1c(=N)c(S(=O)(=O)c2ccc(Br)cc2)cc2c(=O)n3cccc(C)c3nc21`, -1.27%; that for `Cc1ccccc1C(=O)c1cccn1CC(=O)NCCCc1ccccc1`, 6.74%.
Regarding `C=CCc1cccc2cc(C(=O)NC3CCCCC3)c(=O)oc12`, the “hERG current change (%, negative = inhibition) at 1uM” value was determined as 5.32%.
`Cc1ccc(C2=[N+]([O-])C3(CCCCC3=O)N(O)C2(C)C)cc1` (stereo not drawn): the “hERG current change (%, negative = inhibition) at 1uM” value amounted to 7.99%.
The value for `CNS(=O)(=O)c1ccc2c(c1)oc(=O)c1cc(S(=O)(=O)NC)ccc12` was 8.57%; that for `O=C(CNC(=O)c1cccc(Br)c1)NCCc1nc2ccccc2[nH]1` was 4.05%.
The result for `O=C(NCCC(=O)N1CCCC1)c1ccccc1Cl` reads 18.6%; that for `CN(c1ccccc1)S(=O)(=O)c1ccc(C(=O)NCc2cccs2)cc1`, 8.18%; that for `O=C(N/N=C/c1ccc(Cl)cc1Cl)c1ccc(-n2cnnn2)cc1`, 11.8%.
The result for `COc1ccc(S(=O)(=O)N(C)C)cc1NCC(=O)Nc1ccc(F)cc1F` reads 9.56%.
`CC(C)CN(C(=O)CCCSc1nc2ccccc2[nH]1)c1c(N)n(Cc2ccccc2)c(=O)[nH]c1=O`: the “hERG current change (%, negative = inhibition) at 1uM” value is on record as -14.8%.
The result for `COc1cc([N+](=O)[O-])ccc1NC(=O)C1CCCN(S(C)(=O)=O)C1` (stereo not drawn) reads 11.4%; that for `CC(C)c1ccc(N2C(=O)CC(NNC(=O)c3cccnc3)C2=O)cc1` (stereo not drawn), 14.5%.
The value for `COc1ccc(S(=O)(=O)N2CCN(c3ccc(F)cc3)CC2)cc1OC` was 13.6%; that for `Cc1ccc(/C=N/NC(=O)Cc2cccn2C)cc1` was 2.63%; that for `CCC1(CC)NC(=O)N(CC(=O)OCC(=O)Nc2ccccc2[N+](=O)[O-])C1=O` was 7.55%.
The result for `CN(C)S(=O)(=O)N1CCCC(C(=O)c2ccc(C(F)(F)F)cc2)C1` (stereo not drawn) reads 4.24%; that for `O=C(c1cc(-c2cccc(Cl)c2)on1)N1CCCC1`, 7.75%.
On to `Cc1cccc(C(=O)NCC(=O)OCC(=O)N2CC3(C)CC2CC(C)(C)C3)c1` (stereo not drawn), for which the “hERG current change (%, negative = inhibition) at 1uM” value is -10.4%.
The result for `C=CCn1c(COc2ccccc2)nnc1SCC(=O)C(C)(C)C` reads 3.55%.
The result for `O=C(Nc1ccccc1F)OC1CN2CCC1CC2` (stereo not drawn) reads 11.5%; that for `COc1ccc2c(c1)CCc1cn[nH]c1-2`, 17%.
In the case of `O=C(NCc1ccco1)C1CCN(c2nc3ccccc3n2Cc2ccccc2F)CC1`, the “hERG current change (%, negative = inhibition) at 1uM” value is given as -62.8%.
In the case of `Cn1c(=O)c2c(nc(CN3CCN(c4ccc(F)cc4)CC3)n2Cc2ccccc2F)n(C)c1=O`, the “hERG current change (%, negative = inhibition) at 1uM” value is -1.72%.
The value for `CN1CCC(N(C)C(=O)c2ccccc2F)CC1.Cl` was 19.3%; that for `Cc1nn(C2CCCO2)c(=O)nc1N` (stereo not drawn) was 21.5%.
For the compound `COc1ccc(CCNC(=O)CSc2nc3ccccc3o2)cc1OC`, the “hERG current change (%, negative = inhibition) at 1uM” value is reported as 12.1%.
The result for `Cl.O=C(NCCOC(=O)c1ccccc1C(=O)OCCNC(=O)c1cccnc1)c1cccnc1` reads 13.7%; that for `CC(=O)Nc1ccc(S(=O)(=O)Nc2c(NC3CCCCC3)c3ccccc3oc2=O)cc1`, 11.6%; that for `COc1cc(CN2CCN(c3ccccc3F)CC2)cc(OC)c1O`, 2.78%.
With `O=C(Nc1ccccc1C(=O)Nc1ccc(Br)cn1)c1cccc([N+](=O)[O-])c1`, the “hERG current change (%, negative = inhibition) at 1uM” value was 15%.
As to `CN1CCN(C(=O)Nc2ccc([N+](=O)[O-])cc2)CC1`, the “hERG current change (%, negative = inhibition) at 1uM” value is -2.87%.
The value for `O=C(O)c1cc(NC(=O)c2ccccc2F)cc(NC(=O)c2ccccc2F)c1` was 10.9%.
For `FC(F)(F)c1cccc(-n2cccc2/C=N/n2cnnc2)c1`, the “hERG current change (%, negative = inhibition) at 1uM” value is given as -7.64%.
The result for `CCc1ccc(S(=O)(=O)NCCc2cn3ccc(C)cc3n2)s1` reads -10.8%.
Regarding `S=C(Nc1ccccc1Cl)N1CCOCC1`, the “hERG current change (%, negative = inhibition) at 1uM” value was 7.64%.
The result for `CC1(C)N2CC3([N+](=O)[O-])CN1CC([N+](=O)[O-])(C2)C3` reads 8.55%.
As to `O=C(CN1CCN(Cc2ccc(Cl)cc2)CC1)N/N=C/c1c[nH]c2ccccc12`, the “hERG current change (%, negative = inhibition) at 1uM” value is given as -1.75%.
`C/C=C(\C)C(=O)NCCN1C2=NC[C@H](C(C)C)N2C[C@@H]1Cc1ccc(OC)cc1`: the “hERG current change (%, negative = inhibition) at 1uM” value is on record as -46.6%.
The result for `O=C(NC1CC1)c1ccc2c3c(cccc13)CC2` reads 10.8%; that for `CCn1c(SCCC#N)nnc1-c1ccncc1`, 0.3%; that for `COc1ccc(NC(=S)Nc2ccccc2Cl)cn1`, -2.22%.
The result for `N#Cc1c(NC(=O)CSc2nc(-c3ccccc3)cc(C(F)(F)F)n2)sc2c1CCC2` reads 10.6%; that for `Cc1c(C(=O)Nc2c(F)cccc2F)sc2ncn(CC(=O)N3CCCCC3)c(=O)c12`, 17.4%.
For `COc1ccc2nc(C)cc(SCC(=O)N/N=C/c3cccc4ccccc34)c2c1`, the “hERG current change (%, negative = inhibition) at 1uM” value is 7.88%.
The value for `O=C(NNc1nc(-c2ccccc2)cs1)c1ccco1` was 5.62%.
